In patent publication US20210228680A1 (ONCOIMMUNE, published 2021):

Biological target: T1, Siglec-10Fc (human, UniProt Q96LC7 17-546)
T1 construct: The construct is named only as Siglec-10Fc; not shown: Fc part of Siglec-10Fc
T1 sequence (looked up): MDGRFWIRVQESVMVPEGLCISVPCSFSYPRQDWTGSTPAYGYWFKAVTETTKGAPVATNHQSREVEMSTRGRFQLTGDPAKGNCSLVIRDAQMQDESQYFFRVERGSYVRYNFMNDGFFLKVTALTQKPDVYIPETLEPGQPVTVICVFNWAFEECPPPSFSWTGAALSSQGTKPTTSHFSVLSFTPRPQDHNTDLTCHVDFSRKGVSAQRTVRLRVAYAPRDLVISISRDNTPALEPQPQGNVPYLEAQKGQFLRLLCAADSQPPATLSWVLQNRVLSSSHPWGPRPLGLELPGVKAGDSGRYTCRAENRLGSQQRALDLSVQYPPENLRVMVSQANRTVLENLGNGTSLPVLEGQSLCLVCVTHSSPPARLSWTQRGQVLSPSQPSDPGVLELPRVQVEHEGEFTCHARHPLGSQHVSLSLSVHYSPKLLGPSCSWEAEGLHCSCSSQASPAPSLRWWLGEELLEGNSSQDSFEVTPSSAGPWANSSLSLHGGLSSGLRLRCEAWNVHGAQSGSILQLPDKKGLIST
Assay: Biacore (SPR): CD24Fc immobilised on the chip, Siglec-10Fc injected at different concentrations; steady-state response plotted against concentration

Kd: 162 nM
B1: CD24Fc fusion protein (processed, secreted form) (Fc fusion)
chain: SETTTGTSSNSSQSTSNSGLAPNPTNATT[… human IgG1 Fc …]
notes: The protein may be heavily glycosylated; also called CD24Ig; CD24IgG1
